Consider 29 molecules from PubChem BioAssay AID1745853 (National Center for Advancing Translational Sciences (NCATS), 2022).

Structures are written as SMILES. This is one part of the list. Further columns of the screen follow, without active or inactive calls.

What all share (assay): Primary Screen for Target Class Profiling of Small Molecule Inhibitors of Methyltransferases
For assay [1], the target named is Glycine N-methyltransferase (Homo sapiens) (UniProt Q14749). Conditions: purified enzyme, MTase-Glo SAH luminescence; measured here: GNMT inhibition; at 40 µM; stronger effect = lower value. In short, it runs like this: (§1)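 Each enzyme was assayed with SAM and its substrate. SAH formation detected by MTase-Glo luminescence; single-point 40 uM screen[…].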

The target of assay [2] is Guanidinoacetate N-methyltransferase (Homo sapiens) (UniProt Q14353). Conditions: purified enzyme, MTase-Glo SAH luminescence; measured here: GAMT inhibition; at 40 µM; stronger effect = lower value. In short, it runs like this: as §1
Assay [3] concerns the target Histamine N-methyltransferase (Homo sapiens) (UniProt P50135). Conditions: purified enzyme, MTase-Glo SAH luminescence; measured here: HNMT inhibition; at 40 µM; stronger effect = lower value. In short, it runs like this: as §1
Assay [4] addresses Nicotinamide N-methyltransferase (Homo sapiens) (UniProt P40261). Conditions: purified enzyme, MTase-Glo SAH luminescence; measured here: NNMT inhibition; at 40 µM; stronger effect = lower value. An outline of the steps: as §1
For assay [5], the target named is Phenylethanolamine N-methyltransferase (Homo sapiens) (UniProt P11086). Conditions: purified enzyme, MTase-Glo SAH luminescence; measured here: PNMT inhibition; at 40 µM; stronger effect = lower value. An outline of the steps:
as §1
% is scaled to controls: 0 for no effect and ±100 for the full control effect.

Turning to `CCC(C)NC(=O)c1ccc2c(=O)n(C)c3nn(CC(=O)Nc4ccc(C(C)C)cc4)c(=O)n3c2c1` (stereo not given), the activity change, negative = inhibition was found to be 4.71% in assay [1]; 0.501% in assay [2]; 5.37% in assay [3]; 1.86% in assay [4]; 5.67% in assay [5].
The matching figures for `CC(C)c1ccc(-c2cc(=O)c3ccccc3o2)cc1`: -22.2%, -13.3%, -6.99%, -45.6% and -22.5%.
For `CC1CCN(S(=O)(=O)c2ccc3c(ccn3CC(=O)NCCc3ccccc3)c2)CC1`, the activity change, negative = inhibition in assay [1] was 13.7%; in assay [2], 0%; in assay [3], 5.71%; in assay [4], -1.28%; in assay [5], 0.366%.
Consider `O=C(Nc1ccc(Cl)cc1Cl)c1cnn2ncccc12`, for which the activity change, negative = inhibition in assay [1] was -6.15%; in assay [2], -13.2%; in assay [3] it was -6.47%; in assay [4] it was -20.6%; in assay [5] it was -30.8%.
The like results for `Cc1cc2c(cc3n2CC(C)(C(=O)NC2CCCCC2)N(CCc2ccccc2)C3=O)o1` (stereo not given) were, in that order, 7.75%, 1.94%, 5.9%, 5.05% and 2.72%.
The matching figures for `CCC1Oc2ccc(NC(=O)Cc3cccs3)cc2CN(C2CCCc3ccccc32)C1=O` (stereo not given): -2.56%, -2.4%, -1.6%, -3.59% and -0.622%.
The matching figures for `COCC(=O)N[C@H]1CC[C@]2(C)CC[C@@H](C(C)C(=O)NC3CC3)[C@H](O)[C@H]2[C@@H]1C` (stereo not given in full): -4.41%, -6.7%, -2.58%, -9.49% and -7.76%.
Take `CC#CC(=O)N1CCC[C@H]1c1nc(-c2ccc(C(=O)Nc3ccccn3)cc2)c2c(N)nccn12`: the activity change, negative = inhibition in assay [1] is 0.94%; in assay [2], 3.98%; in assay [3], 8.01%; in assay [4], -3.75%; in assay [5] it was 6.07%.
The matching figures for `N[C@@H](Cc1c[nH]c2ccc(O)cc12)C(=O)O`: -20.9%, 4.93%, -5.2%, -8.39% and 5.12%.
The matching figures for `COc1ccc(C(=O)NC[C@H]2O[C@H](Cc3cc(CN4CCOCC4)on3)CC[C@@H]2O)cc1`: -4.8%, -10%, -3.37%, -11.8% and -4.26%.
In the case of `CCc1ccccc1N1C(=O)c2cc(C(C)(C)C)nn2CC1(C)C(=O)NCCC(C)C` (stereo not given), the activity change, negative = inhibition in assay [1] is 0.002%; in assay [2] it was 5.03%; in assay [3], 1.16%; in assay [4], -1.71%; in assay [5], -4.24%.
The like results for `Cn1c(=O)c2ccc(C(=O)NC3CCCCC3)cc2n2c(=O)n(CC(=O)NC(C)(C)C)nc12` were, in that order, 3.74%, 0.867%, 5.63%, 5.38% and 3.31%.
The matching figures for `Cn1c(=O)c2ccc(C(=O)NC3CCCC3)cc2n2c(SCC(=O)NC3CCCC3)nnc12`: -1.04%, 4.38%, 4.91%, 1.22% and -1%.
The matching figures for `CC(C)Cn1c(=O)c2ccc(C(=O)NC(C)C)cc2n2c(=O)n(CC(=O)NC3CCCC3)nc12`: 0.912%, 1.5%, 3.95%, -12.2% and -3.58%.
`CC(C)n1nc(-c2ccc3oc(N)nc3c2)c2c(N)ncnc21`: the activity change, negative = inhibition in assay [1] is 1.56%; in assay [2], 1.76%; in assay [3], 7.05%; in assay [4], -15.5%; in assay [5], -9.32%.
As for `CCOc1ccccc1-c1noc(-c2nc(C)no2)n1`, the activity change, negative = inhibition in assay [1] was 0.014%; in assay [2], -1.46%; in assay [3] it was 1.78%; in assay [4] it was -1.75%; in assay [5] it was 12.6%.
As to `CC1(C(=O)NCc2ccc(Cl)cc2)Cn2c(ccc2-c2ccco2)C(=O)N1Cc1ccccc1F` (stereo not given), the activity change, negative = inhibition in assay [1] was -5.7%; in assay [2], 0%; in assay [3], 4.74%; in assay [4], -14%; in assay [5] it was -9.41%.
The matching figures for `O=S(=O)(NCc1nc(-c2ccccc2Cl)no1)c1ccccc1`: -3.94%, 5.84%, -0.611%, -4.52% and -6.11%.
For `Cc1ccc(C)c(C(=O)Cn2nc3n(CCc4ccccc4)c(=O)c4ccccc4n3c2=O)c1`, the activity change, negative = inhibition in assay [1] was 0.76%; in assay [2], 3.24%; in assay [3] it was 3.31%; in assay [4], -1.8%; in assay [5], -1.25%.
The matching figures for `NC(=O)[C@H](O[C@@H]1O[C@H](CO)[C@@H](O)[C@H](O)[C@H]1O)c1ccccc1`: 5.65%, 5.55%, 9.87%, -3.6% and 4.56%.
The like results for `CC(C)(C)Oc1ccc(OCC2Cc3ccccc3CN2C(=O)c2cccc3ccccc23)cc1` (stereo not given) were, in that order, -7.63%, -27.4%, -0.405%, -31.7% and -10.5%.
The matching figures for `O=C(O)c1cc(C(F)(F)F)ccc1N1CC[C@H](OCc2ccccn2)C1`: -4.43%, -14.9%, 1.02%, -21.7% and -13.6%.
Take `Cc1cc2c(cc3n2CC(C)(C(=O)NC2CCCCCCC2)N(Cc2ccc(Cl)cc2)C3=O)o1` (stereo not given): the activity change, negative = inhibition in assay [1] is -4.75%; in assay [2], 0%; in assay [3], 4.4%; in assay [4] it was -15%; in assay [5] it was -6.64%.
Turning to `O=C1c2cnc(-c3ccsc3)nc2OCCN1CC1CC1`, the activity change, negative = inhibition in assay [1] is -6.47%; in assay [2], -8.29%; in assay [3] it was -4.73%; in assay [4], -14.8%; in assay [5], -12.9%.
The matching figures for `O=C1COCC2(CN(c3ccc(C(F)(F)F)cn3)C2)CN1c1ccccc1F`: -8.41%, -7.56%, -0.584%, -16.7% and -1.59%.
The matching figures for `CC(C)(C)c1cc2n(n1)CC(C)(C(=O)NC1CCCCC1)N(Cc1cccc(F)c1)C2=O` (stereo not given): 2.05%, 3.68%, 7.42%, -0.417% and 2.66%.
`COc1cccc(N2C(=O)NC(=NC3CCCCC3)C23CCN(CC2CC2)C3)c1` (stereo not given): the activity change, negative = inhibition in assay [1] was -1.98%; in assay [2], 1.29%; in assay [3], 1.74%; in assay [4] it was -3.16%; in assay [5] it was 0.364%.
The like results for `C[N+](C)(C)CCCCCCCCCC[N+](C)(C)C` were, in that order, -4.07%, 5.65%, -4.18%, -5.82% and 8.13%.
The like results for `CC(=O)O[C@]1(C(C)=O)CC[C@H]2[C@@H]3CCC4=CC(=O)CCC4=C3[C@@H](c3ccc(N(C)C)cc3)C[C@@]21C` were, in that order, -4.96%, -8.29%, 0.816%, -34.6% and -14.8%.
